In all, about 310,000 compounds went through this assay and about 14,000 (4.5%) showed an effect of 50% or more. Effects have a minus sign here. The list shows a part of the results.
target: human ether-à-go-go-related gene (hERG) potassium channel (human, UniProt Q12809); experiment: primary screen, population patch clamp on CHO cells stably expressing hERG
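Also: peak tail current of the secondary pulse compared with the same well before compound.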

human ether-à-go-go-related gene (hERG) potassium channel, sequence (Q12809 whole entry, looked up): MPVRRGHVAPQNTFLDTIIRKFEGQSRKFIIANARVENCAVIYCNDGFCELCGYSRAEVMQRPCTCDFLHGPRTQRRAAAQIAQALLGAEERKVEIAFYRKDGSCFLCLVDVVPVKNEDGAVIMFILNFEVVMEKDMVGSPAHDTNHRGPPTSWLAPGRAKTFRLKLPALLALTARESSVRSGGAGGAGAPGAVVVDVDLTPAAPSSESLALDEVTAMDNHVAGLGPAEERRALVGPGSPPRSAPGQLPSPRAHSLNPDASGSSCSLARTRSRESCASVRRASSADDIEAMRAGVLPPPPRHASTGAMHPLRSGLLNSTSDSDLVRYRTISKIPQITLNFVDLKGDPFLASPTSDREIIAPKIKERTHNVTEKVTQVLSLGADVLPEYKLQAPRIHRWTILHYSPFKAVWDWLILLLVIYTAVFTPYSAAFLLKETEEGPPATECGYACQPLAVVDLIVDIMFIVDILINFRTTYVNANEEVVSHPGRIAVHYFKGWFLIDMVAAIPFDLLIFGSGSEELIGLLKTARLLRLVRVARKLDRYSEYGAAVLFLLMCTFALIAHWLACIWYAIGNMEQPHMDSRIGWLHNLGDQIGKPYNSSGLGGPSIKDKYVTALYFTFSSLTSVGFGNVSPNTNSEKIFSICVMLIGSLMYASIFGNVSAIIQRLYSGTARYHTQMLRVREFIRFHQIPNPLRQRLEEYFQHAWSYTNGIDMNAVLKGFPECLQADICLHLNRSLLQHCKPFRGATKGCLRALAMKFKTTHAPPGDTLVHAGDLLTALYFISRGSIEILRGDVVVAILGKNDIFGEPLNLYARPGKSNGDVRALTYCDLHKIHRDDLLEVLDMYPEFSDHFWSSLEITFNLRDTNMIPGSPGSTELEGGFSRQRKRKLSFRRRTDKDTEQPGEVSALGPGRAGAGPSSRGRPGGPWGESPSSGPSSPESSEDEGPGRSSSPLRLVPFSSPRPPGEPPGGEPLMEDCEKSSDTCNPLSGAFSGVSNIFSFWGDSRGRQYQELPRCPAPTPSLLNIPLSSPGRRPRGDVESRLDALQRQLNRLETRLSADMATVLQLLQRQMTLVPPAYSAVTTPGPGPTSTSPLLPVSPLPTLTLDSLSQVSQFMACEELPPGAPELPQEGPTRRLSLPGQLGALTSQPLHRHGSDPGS

Compound | hERG current change (%, negative = inhibition) at 10uM [%]
O=C(CCNC(=O)c1ccc([N+](=O)[O-])cc1)Nc1cccc(S(=O)(=O)N2CCCCCC2)c1 | -75.1
COc1ccc(NC(=O)CCNS(=O)(=O)c2cccc3nonc23)cc1Cl | 32.3
COC(=O)CCC(=O)Nc1ccc(C)cc1OC(=O)CCC(=O)OC | 13.2
Cc1ccc(S(=O)(=O)n2nc(OC(=O)c3cccc(F)c3)cc2N)cc1 | 20.4
CCNc1nc(Oc2ccccc2)nc(OC(C)C(=O)OCC)n1 (stereo not drawn) | -7.55
CN(CC(=O)Nc1ccccc1Br)Cc1nc2ccccc2c(=O)[nH]1 | -23.2
CC(C)OC(=O)CC(=O)CSc1nc2c(c(-c3cccs3)c1C#N)CCC2 | -8.89
COC(=O)c1ccc(CN2C(=O)NC(Cc3c[nH]c4ccccc34)C2=O)cc1 (stereo not drawn) | 14.8
N#Cc1c(NC(=O)c2ccccc2)sc2c1CCCCC2 | 7.75
COc1ccc(C2CC(=O)C=C(NC3CCCC3)C2)cc1 (stereo not drawn) | -5.76
Cc1cc(NC(=O)Nc2ccc(Cl)cc2)n(-c2ccccc2)n1 | 1.59
Cc1nnc(SCC(=O)Nc2ccc(F)cc2F)n(N)c1=O | -2.07
CCOC(=O)C1CCCCN1Cc1ccccc1C(F)(F)F (stereo not drawn) | -5.9
COc1cccc(C(=O)N(Cc2ccco2)Cc2cc3cccc(C)c3[nH]c2=O)c1 | -8.22
CNc1nc(-c2ccc3c(c2)CCN3C(=O)c2ccccc2F)c(C)s1 | 23
CC1(C)CC(=O)c2cc(OCC(=O)NCC3CCCO3)ccc2O1 (stereo not drawn) | 13.2
COc1cc2nc(/C=C/c3cc(OC)c(OC)c(OC)c3)sc2cc1SC | 5.92
COc1cc(/C=N/NC(=O)C(=O)NCc2ccco2)cc(Cl)c1O | 1.79
CC(C)CCNC1c2ccccc2C(=O)N1Cc1ccccc1.Cl (stereo not drawn) | -7.9
CC1=CCC2C(=O)N(c3ccc(C(=O)N4CCCCCC4)cc3)C(=O)C2C1 (stereo not drawn) | 4.64
O=c1[nH]cnc2c1c(-c1ccccc1)cn2-c1ccc(Br)cc1 | 5.66
O=C(COC(=O)c1ccc(S(=O)(=O)N2CCOCC2)cc1)NC1CCCCCCC1 | 12.2

Compound | hERG current change (%, negative = inhibition) at 10uM [%]
COC(=O)C1=C(c2ccc(OC)c(OC)c2)C[C@@H]2CC[C@H]1N2C(=O)NC1Cc2ccccc2C1 | -12
Cc1cc2c(cc(C(=O)N3CCC(C(=O)N4CCCC4)CC3)n2Cc2c(F)cccc2Cl)o1 | -36.6
COc1ccc(/C=C/C(=O)NC(=S)Nc2ccc(S(=O)(=O)Nc3cc(C)on3)cc2)cc1 | -6.89
COC(=O)[C@H](Cc1ccccc1)NC(=O)NCCc1ccc(OC)cc1 | -7.19
COC(=O)Nc1ccc(NC(C)=O)cc1 | 31.5
O=C(c1ccc2c(c1)OCCCO2)N1CCCCC1 | 11.7
Cc1c(C(=O)N2CCCCCC2)oc2ccccc12 | -37.3
COc1ccc2c(c1)c(C(=O)CNc1nc(C)cs1)c(C)n2C.I | -16.8
N#Cc1ccc(Cn2cc(C=O)c3ccccc32)cc1 | -80.8
CNC(=S)N1CCN(C(c2ccccc2)c2ccccc2)CC1 | -15.6
Cc1ccc(CNC(=O)c2ccc(CN3CCOCC3)cc2)cc1 | 5.22
O=C(N/N=C/c1ccccn1)c1cc(-c2ccc(Br)s2)[nH]n1 | -9.86
CC1CCCC(C)N1/N=C/c1c[nH]c2ccc(Br)cc12 (stereo not drawn) | -6.05
CCN(CC)CCNC(=O)c1ccc(NC(=O)c2c(C)nn(-c3ccc(F)cc3)c2Cl)cc1 | -60
CC(C)N1C(=O)CN(C2CCCCCC2)C(=O)C1c1ccccc1F (stereo not drawn) | -9.67
COc1cc(C(=O)Nc2cc(S(C)(=O)=O)ccc2Cl)ccc1OCC(=O)N1CCOCC1 | -2.54
Cc1ccc2ncccc2c1[N+](=O)[O-] | 4.07
CCN1C(=O)[C@H]2[C@@H](c3ccc(C)cc3)N3C(=O)N(c4ccc(OC)cc4)C(=O)[C@@]3(Cc3ccccc3)[C@H]2C1=O | 10.9
CCOC(=O)Nc1ccc2c(c1)N(C(=O)CNC)c1ccccc1CC2.Cl | -13.4
Cc1ccc(OCC(=O)N2CCc3ccccc3C2)c([N+](=O)[O-])n1 | -4.35
Cc1cc(C)c(S(=O)(=O)c2ccccc2C(=O)O)c(C)c1 | 9.38
COc1ccc(-n2nc(C(=O)NCC(=O)N3CCCC3)c3ccccc3c2=O)c(OC)c1 | 13.3

Compound | hERG current change (%, negative = inhibition) at 10uM [%]
Cc1cc(C)n2nc(C(=O)Nc3ccc(S(=O)(=O)N4CCCCC4)cc3)nc2n1 | -3.52
CC(=O)SC1CC(=O)N(c2c(C)cccc2C)C1=O (stereo not drawn) | 13.1
COC(=O)c1cn(C(=O)c2ccc(Cl)cc2)c2ccccc12 | 5.92
COc1ccc(Cl)cc1N1C(=NC(=O)C2CCCCC2)SC2CS(=O)(=O)CC21 (stereo not drawn) | -39.5
CC(Oc1ccc2oc3ccccc3c2c1)C(=O)NC12CC3CC(CC(C3)C1)C2 (stereo not drawn) | 21.1
CCn1nc(C(=O)Nc2cccc3ccccc23)c(Cl)c1Cl | 4.75
O=C(/C(=C/O)N=Nc1ccccc1)c1ccncc1 | -12.1
COc1cnc(-c2ccccn2)nc1Sc1cccc(Cl)c1 | 14.2
CCc1cc(C(c2cccc(OC)c2)N2CCOCC2)c(NC(=O)c2ccccc2)s1 (stereo not drawn) | -1.91
CCCCC(=O)NC(=S)Nc1cccc(C(=O)O)c1 | 13.7
O=C(CN1NS(=O)(=O)c2ccccc2C1=O)Nc1ccccc1OC(F)F | -6.18
COc1ccc(N(CC(=O)NCc2ccccc2C)S(=O)(=O)c2ccc(C)cc2)cc1OC | 4.46
COc1ccc(C2=NS(=O)(=O)N(C)C(C(=O)N3C(C)CCCC3C)=C2)cc1 (stereo not drawn) | -1.72
CC(=O)Nc1ccc(NC(=O)C2CC(=O)N=C(N)S2)cc1 (stereo not drawn) | 5.46
CCCCn1c(N)c(N(CCC(C)C)C(=O)c2ccc(C)c(S(=O)(=O)N3CCOCC3)c2)c(=O)[nH]c1=O | -5.28
Cn1c(O)c(C(=O)c2ccccc2)c(=O)n(C)c1=O | 6.11
COc1cccc(NCCC(=O)c2cccc([N+](=O)[O-])c2)c1 | 1.61
O=C(NC1CCCC1)C1CC(c2ccc(F)cc2)=NO1 (stereo not drawn) | -5.02
Cc1cc(C(=O)N/N=C/c2ccccn2)c2ccccc2n1 | 14.5
Cc1ccc(NC(=O)CCNS(=O)(=O)c2ccc(OC(F)(F)F)cc2)c(O)c1 | -7.66
Cc1c(Br)c(C(F)(F)F)nn1CC(=O)NCCN1CCOCC1 | 0.425
Cc1ccc(N2CC(C(=O)Nc3cccnc3)CC2=O)cc1Cl (stereo not drawn) | 11.7

Compound | hERG current change (%, negative = inhibition) at 10uM [%]
COC(=O)c1[nH]nc2c1C(=O)N(C1CCCCC1)C2=O | 2.56
COc1ccc(NC(=O)Nc2cc(C)ccc2OC)cc1 | -10.4
Fc1ccc(-c2nnn(Cc3nc4ccccc4s3)n2)cc1 | -11.2
COc1ccc(C(=O)/C=C/Nc2ccc(S(=O)(=O)Nc3onc(C)c3C)cc2)cc1 | 33.4
CCOC(=O)C1CCN(C(=O)CCC(=O)NNc2nc3ccccc3c3nc(C)nn23)CC1 | 6.91
CNC(=O)/C(C#N)=C/c1ccc(-c2ccc(OC)cc2[N+](=O)[O-])o1 | -1.67
COc1ccccc1N=Nc1[nH]c2ccc(C)cc2c1O | 5.92
Cc1ccc(NC(=O)CCN2CCC(C)CC2)cc1.Cl | 18.6
Clc1ccc(-c2c[nH]c3ccccc23)nn1 | 21.1
CN(C)c1ccc(P(=O)(OCc2ccccc2)C(O)c2ccccc2)cc1 (stereo not drawn) | -6.46
O=C(Nc1ccccc1NC(=O)c1ccccc1F)c1ccccc1F | 12.5
CN=C(Nc1ccccc1)SC1CC(=O)N(c2cccc(OC)c2)C1=O (stereo not drawn) | -4.54
COc1ccc(N2C(=O)CC(NNC(=O)c3ccco3)C2=O)cc1 (stereo not drawn) | 9.7
O=C(CSc1nnc(COc2ccccc2Cl)o1)NC(=O)NCc1ccco1 | -8.18
COc1cc(NC(=O)c2ccco2)c(C(=O)OCC(=O)Nc2ncc(Cl)cc2Cl)cc1OC | 7.81
CCn1nc(NC(=O)c2ccncc2)c2cc3cccc(C)c3nc21 | 20.6
COC(=O)c1sc(N2C(=O)C(O)=C(C(=O)c3ccc(C)o3)C2c2ccco2)nc1C (stereo not drawn) | -4.73
O=P(Nc1cccnc1)(Oc1ccccc1Cl)Oc1ccccc1Cl | -11
CC(=O)N=C1SC2CS(=O)(=O)CC2N1c1ccc(-c2nc3ccc(C)cc3s2)cc1 (stereo not drawn) | 8.72
CCOC(=O)CSc1nc2c(c(=O)[nH]1)C(C)(CC)Cc1ccccc1-2 (stereo not drawn) | -4.76
COc1cccc(C(=O)Nc2ccc(NC(=O)Cc3ccccc3)cc2)c1 | -24.1

Source: paper PMC4336329 (PLoS ONE, 2015)
